Measurements published in the supplement of paper PMC4967469.
A lower IC50 marks a more sensitive line; a fit beyond the top or the lowest dose is shown as a bound at that dose. AUC is the area under the same curve over the 256-fold range up to the top dose, as a fraction; it is 1 without any effect and falls as sensitivity rises. Where the top dose is marked as inferred, it comes from the curve model; the source does not state it. An entry number marks a drug with two screens in the source, which often give different values.

Each cell line was assayed with NC(=O)[C@@H](CCC(F)(F)F)N(Cc1ccc(-c2ncon2)cc1F)S(=O)(=O)c1ccc(Cl)cc1 [BMS-708163] (assay: Viability of human cancer cell lines after 72 h of drug (GDSC screen)). Conditions: screen: GDSC drug entry 205; top dose inferred.
Method: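 Human cancer cell lines in 384-well plates, medium with 10% serum, drug for 72 h over a 256-fold dose range (nine 2-fold or five 4-fold steps up to the top dose). Adherent lines were fixed and stained with the nucleic acid dye Syto60, suspension lines read with resazurin; signal relative to control wells, capped at 0 and 100%. One two-parameter sigmoid per drug and line, fitted in a mixed model over all curves with the slope shared within a line.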

Cell Line	AUC	IC50
IST-MEL1 (melanoma, adherent, top dose 10.24 µM)	0.973	> 10.2 µM
IST-MES1 (mesothelioma, adherent, top dose 10.24 µM)	0.981	> 10.2 µM
IST-SL1 (small cell lung carcinoma, semi-adherent, top dose 10.24 µM)	0.984	> 10.2 µM
IST-SL2 (small cell lung carcinoma, suspension, top dose 10.24 µM)	0.986	> 10.2 µM
J82 (bladder, adherent, top dose 10.24 µM)	0.988	> 10.2 µM
JAR (urogenital system, adherent, top dose 10.24 µM)	0.987	> 10.2 µM
JEG-3 (urogenital system, adherent, top dose 10.24 µM)	0.989	> 10.2 µM
JHH-1 (liver, adherent, top dose 10.24 µM)	0.973	> 10.2 µM
JHH-2 (liver, adherent, top dose 10.24 µM)	0.986	> 10.2 µM
JHH-4 (liver, adherent, top dose 10.24 µM)	0.945	> 10.2 µM
JHH-6 (liver, adherent, top dose 10.24 µM)	0.986	> 10.2 µM
JHH-7 (liver, adherent, top dose 10.24 µM)	0.989	> 10.2 µM
JHOS-2 (ovary, adherent, top dose 10.24 µM)	0.971	> 10.2 µM
JHOS-3 (ovary, adherent, top dose 10.24 µM)	0.984	> 10.2 µM
JHU-011 (head and neck, adherent, top dose 10.24 µM)	0.982	> 10.2 µM
JHU-022 (head and neck, adherent, top dose 10.24 µM)	0.982	> 10.2 µM
JIMT-1 (breast, adherent, top dose 10.24 µM)	0.981	> 10.2 µM
JJN-3 (haematopoietic neoplasm, suspension, top dose 10.24 µM)	0.993	> 10.2 µM
JM1 (B-cell lymphoma, suspension, top dose 10.24 µM)	0.991	> 10.2 µM
JSC-1 (B-cell lymphoma, suspension, top dose 10.24 µM)	0.968	> 10.2 µM
JURL-MK1 (chronic myeloid leukaemia, suspension, top dose 10.24 µM)	0.986	> 10.2 µM
JVM-2 (lymphoid neoplasm, suspension, top dose 10.24 µM)	0.982	> 10.2 µM
JVM-3 (lymphoid neoplasm, suspension, top dose 10.24 µM)	0.987	> 10.2 µM
JiyoyeP-2003 (Burkitt lymphoma, suspension, top dose 10.24 µM)	0.991	> 10.2 µM
K2 (melanoma, adherent, top dose 10.24 µM)	0.982	> 10.2 µM
K5 (thyroid, adherent, top dose 10.24 µM)	0.987	> 10.2 µM

Cell Line	AUC	IC50
KALS-1 (glioma, adherent, top dose 10.24 µM)	0.974	> 10.2 µM
KARPAS-45 (lymphoblastic leukaemia, suspension, top dose 2.56 µM)	0.966	> 2.56 µM
KARPAS-231 (B-cell leukaemia, suspension, top dose 10.24 µM)	0.994	> 10.2 µM
KARPAS-299 (anaplastic large cell lymphoma, suspension, top dose 10.24 µM)	0.992	> 10.2 µM
KARPAS-422 (B-cell lymphoma, suspension, top dose 10.24 µM)	0.988	> 10.2 µM
KARPAS-620 (haematopoietic neoplasm, suspension, top dose 10.24 µM)	0.991	> 10.2 µM
KASUMI-1 (acute myeloid leukaemia, suspension, top dose 10.24 µM)	0.968	> 10.2 µM
KCL-22 (chronic myeloid leukaemia, suspension, top dose 10.24 µM)	0.991	> 10.2 µM
KE-37 (lymphoblastic leukaemia, suspension, top dose 2.56 µM)	0.993	> 2.56 µM
KELLY (neuroblastoma, adherent, top dose 10.24 µM)	0.989	> 10.2 µM
KG-1 (acute myeloid leukaemia, suspension, top dose 10.24 µM)	0.989	> 10.2 µM
KGN (ovary, adherent, top dose 10.24 µM)	0.953	> 10.2 µM
KINGS-1 (glioma, adherent, top dose 10.24 µM)	0.974	> 10.2 µM
KLE (endometrium, adherent, top dose 10.24 µM)	0.978	> 10.2 µM
KM12 (large intestine, adherent, top dose 2.56 µM)	0.986	> 2.56 µM
KM-H2 (Hodgkin lymphoma, suspension, top dose 10.24 µM)	0.993	> 10.2 µM
KMH-2 (thyroid, adherent, top dose 10.24 µM)	0.974	> 10.2 µM
KMOE-2 (acute myeloid leukaemia, suspension, top dose 10.24 µM)	0.987	> 10.2 µM
KMRC-1 (kidney, adherent, top dose 10.24 µM)	0.987	> 10.2 µM
KMRC-20 (kidney, adherent, top dose 10.24 µM)	0.987	> 10.2 µM
KMS-11 (myeloma, suspension, top dose 10.24 µM)	0.991	> 10.2 µM
KMS-12-BM (myeloma, suspension, top dose 10.24 µM)	0.991	> 10.2 µM
KNS-42 (glioma, adherent, top dose 10.24 µM)	0.984	> 10.2 µM
KNS-81-FD (glioma, adherent, top dose 10.24 µM)	0.965	> 10.2 µM
KON (head and neck, adherent, top dose 10.24 µM)	0.987	> 10.2 µM

Same assay, conditions: top dose 5 µM; screen: GDSC drug entry 1072; top dose inferred

Cell Line	AUC	IC50
JEKO-1 (B-cell lymphoma, suspension)	0.968	> 5 µM
JHOS-2 (ovary, adherent)	0.973	> 5 µM
JHOS-3 (ovary, adherent)	0.979	> 5 µM
JHOS-4 (ovary, adherent)	0.905	> 5 µM
Jurkat (T-cell leukaemia, suspension)	0.99	> 5 µM
KARPAS-1106P (B-cell lymphoma, suspension)	0.98	> 5 µM
KATOIII (stomach, semi-adherent)	0.969	> 5 µM
KMS-11 (myeloma, suspension)	0.976	> 5 µM
KNS-62 (lung squamous cell carcinoma, adherent)	0.979	> 5 µM
